Molecular target: T1, SpGAPDH (Streptococcus pyogenes, UniProt P68777)
T1 construct: gene gap
Assay: X-ray crystal structure, […] Å
Conditions: holoenzyme, NAD+ in active site of each protomer

T1 sequence (P68777 whole entry): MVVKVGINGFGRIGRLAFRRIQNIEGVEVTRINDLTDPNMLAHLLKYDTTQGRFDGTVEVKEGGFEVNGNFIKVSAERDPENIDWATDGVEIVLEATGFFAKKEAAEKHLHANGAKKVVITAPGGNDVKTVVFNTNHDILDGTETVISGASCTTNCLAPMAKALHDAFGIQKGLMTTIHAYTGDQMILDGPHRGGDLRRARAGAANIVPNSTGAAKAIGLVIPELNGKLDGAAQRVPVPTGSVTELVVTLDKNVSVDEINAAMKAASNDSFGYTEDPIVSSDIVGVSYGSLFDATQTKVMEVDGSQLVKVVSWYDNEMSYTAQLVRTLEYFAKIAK

## NC(=O)c1ccc[n+]([C@@H]2O[C@H](COP(=O)(O)OP(=O)(O)OC[C@H]3O[C@@H](n4cnc5c(N)ncnc54)[C@H](O)[C@@H]3O)[C@@H](O)[C@H]2O)c1 [NAD+]
  X-ray crystal structure, 1.50 Å: Both crystal structures correspond to the holoenzymes with the NAD+ cofactor deeply buried

Reference: PMC6400076 (Frontiers in Microbiology, 2019)
